Data on 22 molecules can be found in paper PMC12136788.

The other results are listed elsewhere or left out.

The labels stand for the following.
B1: 39932699_39932819_2068_CDS_ENSG00000183337_ENST00000397354|human|control|control (ssRNA)
RNA: GGGAGUUCUACAGUCCGACGAUCAAGGCCGUUCUCGUUUGCUUUGAAACUCGGUUCUGGGUUGCUGGCUUUGGCGCCCUUGCUGCUGGUGCUGCUACUGUGCUUGGCAGGAGUGGCCGGGGGCUGGCCCACGUGCUGAAUAACCAACAGAGGAUUGAGCAUCA
B2: 137848543_137849276_803_3pUTR_ENSG00000120705_ENST00000360541|human|control|control (ssRNA)
RNA: GGGAGUUCUACAGUCCGACGAUCAUAAACAGCUGCACAGCAGUCUCUGCUACUUUCCGAACAUAGUUAUGUCGCUUUUCCAUUCUUAAACGGGCAAAACGCAAGGCUGACUGACCUCCUCUACCGUGUUUCUUUGGGAGAUCCCAACAGAGGAUUGAGCAUCA
B3: chr10:28872372:28872373:+_ENSG00000095787_ENST00000354911|hu_mus|motif|central (ssRNA)
RNA: GGGAGUUCUACAGUCCGACGAUCUGCAUCUGAAGUUUUGCUUGGAUUAUUGCUUGGAUUAGAAGAAUGUGAAUUUGAACGGUGAAGUGCACUGUGGUUGUGUGAGUUUUCUUGUGGAGAGUAACUGGUCCCACCGUCCCUUUCCAACAGAGGAUUGAGCAUCA
B4: chr5:138700276:138700277:+_ENSG00000120727_ENST00000265192|hu_mus|FALSE|FALSE (ssRNA)
RNA: GGGAGUUCUACAGUCCGACGAUCUUCCAGCAUUUCUUGGAAACAGCGUUCAAUAAAUUCUUCUUCCCACAACUCCUCUUCUAUUUGUCUGUUGAAUUCCUCUUCAUUUUCCAUCCACAUGUACUCUGCAAAUGGAUUAUCCUCCAACAGAGGAUUGAGCAUCA
B5: chr4:17845017:17845018:+_ENSG00000109805_ENST00000514176|hu_mus|hu_hu_hu_mus_False|48_68 (ssRNA)
RNA: GGGAGUUCUACAGUCCGACGAUCGCUCUCUUAACUUGUAUCUUCAUUAAGGAACUCUGCAAGGUUAGUUUACUUUUUCUGUAGCGCGCGGUUUUGGGCUCGUCUGGGUAAUCUCAUCUUCAUUUCUGAUGGUGGUUCAUGAUCCAACAGAGGAUUGAGCAUCA
B6: chr7:65705475:65705476:+_ENSG00000169902_ENST00000304842|hu_hu|hu_hu_hu_mus_True|38_98 (ssRNA)
RNA: GGGAGUUCUACAGUCCGACGAUCUCUAUUCGGUGAUGGCAUUCCAUGGCAUGCUGGCCCAGGUAAAACACGGUCACAGAACUAAUCACCAGACACGCCAAUAGUAAGUUCUGCUUCAGCUUCCCAACCAUCUUGAUGUGGUUACAACAGAGGAUUGAGCAUCA
B7: chr22:36164377:36164378:-_ENSG00000100320_ENST00000405409|hu_mus|motif|central (ssRNA)
RNA: GGGAGUUCUACAGUCCGACGAUCACGGCCCUCUACCACGGUGCCGUGCAAUUUCUCCCUGGCCCUGUCUGCAUCAGCACGGUUCUCGAAAGUUACGAACCCGAAUCCCUUGGAGCCGCGCUCAUUAAAGAUUAUUUCCACAUCCAACAGAGGAUUGAGCAUCA
B8: 180448006_180449495_405_CDS_ENSMUSG00000027573_ENSMUST00000029090|mouse|control|control (ssRNA)
RNA: GGGAGUUCUACAGUCCGACGAUCCAUCUCCCGAAUCUUGAUUCGCUCAUCAAGUGUUUCUAGGUCCACACUUGGUUCGAUCCCAGACUCCAUCCGAAAUUUCUCUGCUGCUUCCUUAAAGCCCUCUGUGACUAGGUAGUUCAUCAACAGAGGAUUGAGCAUCA
B9: chr8:26227902:26227903:+_ENSG00000221914_ENST00000315985|hu_hu|FALSE|FALSE (ssRNA)
RNA: GGGAGUUCUACAGUCCGACGAUCGGAAUGCCAACCCUAAUUCACUUUGUCUUGAAAUAUAUACAGAUUGUUUGUAGUAGCUACGGCAAUGAUAUUUUCCUUGGGGUGCCAGGCUGUGUGAAGGAUUUUCUUAUUGAAGUCUAGCAACAGAGGAUUGAGCAUCA
B10: chr1:39469031:39469032:+_ENSG00000174574_ENST00000432648|hu_hu|FALSE|FALSE (ssRNA)
RNA: GGGAGUUCUACAGUCCGACGAUCAUACCGUCGCAUAAUCUGAUCAUGUGUGAAUUUCACAAAAGAUUCAUAUUGUUCUGCUAGUUUGGUAUUGAGGAUUUGCUCAUACUCCUCCCGAAUUUUAUCUUCAUAGUCUUUUAAGAGCAACAGAGGAUUGAGCAUCA
B11: chrX:69798090:69798091:-_ENSMUSG00000031343_ENSMUST00000055966|mus_mus|mus_mus_mus_hu_False|18_38 (ssRNA)
RNA: GGGAGUUCUACAGUCCGACGAUCAAGUCCCCGGGUUCUUGUCGUCUUGAUUCCCCUUGACCAGUGGUUCCAGGGAGAAUAUUAAUCAGGAAAAGAAGUACAACUCUGGUCAUGUAAAAGUGCCACAUUUGUGUGAUUAUCAUCCAACAGAGGAUUGAGCAUCA
B12: chr15:80429895:80429896:+_ENSG00000086666_ENST00000558494|hu_hu|FALSE|FALSE (ssRNA)
RNA: GGGAGUUCUACAGUCCGACGAUCUCAAGAAUUUUGUAUUCCAGCAGGAGUUCAAAUCUUUUGGAUCUUUUCACCAACAACUACUGGAUUUUCUUUUCUGAUUUUCUCAGCAGCAUCGGCUUUGUAAUUGUAAGAGCAAUUGUGCAACAGAGGAUUGAGCAUCA
B13: chr7:149068622:149068623:-_ENSMUSG00000025139_ENSMUST00000001950|mus_hu|mus_mus_mus_hu_False|28_48 (ssRNA)
RNA: GGGAGUUCUACAGUCCGACGAUCGUGAGGCCUCUGAGUGUGGCUUGUGGUCUGUCCUGGGUUAGAGUUGUUAAUAUCACGGAACAUACCACUUAAGACGUUCCAGUCUGCCUGACUACCUUCAUUCCCAAUGGAGAAGAAAUCCAACAGAGGAUUGAGCAUCA
B14: chr1:149875238:149875239:-_ENSG00000159164_ENST00000369146|hu_mus|motif|central (ssRNA)
RNA: GGGAGUUCUACAGUCCGACGAUCUGUGGUUAGUUUAACUUCCUUUUAACUUUUUUUUUUUUUAACAUUUUACAAACAGCGGAAAACGGCAACACGUCACAGCUACGUUGGGAGUGGAGAGAGAGUACCAAAGAAAGCAGCCACCAACAGAGGAUUGAGCAUCA
B15: chr5:40767622:40767623:-_ENSG00000132356_ENST00000397128|hu_mus|hu_hu_hu_mus_False|28_48 (ssRNA)
RNA: GGGAGUUCUACAGUCCGACGAUCAUCUUUUAUUGCGGCCCUCUUCAUGGGAUCCACCUGCAGCAUAUGUUUCAAAAGGCUGAUUACAGAAGGAUUUAAGUACUGAGGGGUAUAGAAGAUCCCAUCACAUAUCUUCUUAAAAAGCAACAGAGGAUUGAGCAUCA
B16: chr7:26236612:26236613:-_ENSG00000122566_ENST00000356674|hu_mus|FALSE|FALSE (ssRNA)
RNA: GGGAGUUCUACAGUCCGACGAUCAACAAACAGCUUCUUCACAGUCACAUGGGCUCCUGGUUUUCCAGACUCCUCUCUUGCUACAGCACGUUUUGGCUCAACUACCCUGCCAUCAAUGGAAUGGGGCCUUGCAGCCAUGGCAGCCAACAGAGGAUUGAGCAUCA
B17: chr19:8913615:8913616:-_ENSMUSG00000071658_ENSMUST00000096259|mus_hu|mus_mus_mus_hu_False|98_98 (ssRNA)
RNA: GGGAGUUCUACAGUCCGACGAUCAGGGUACCAAAACACCCUGCCUCAAAUGGGUGCCCCACCCAGUAGGGAGUUGCAGCUGAAAGUAUCUGAUGCAGAAGCAGUGACUAUACGAAAGGAGGCCCCUGGGGAGGGCCAGGCCAGCAACAGAGGAUUGAGCAUCA
B18: chr10:33190432:33190433:-_ENSG00000150093_ENST00000302278|hu_mus|hu_hu_hu_mus_True|48_98 (ssRNA)
RNA: GGGAGUUCUACAGUCCGACGAUCUACAUUUUCCAAACCUGCACAUGAAUAAAACCCUGGCCACAGAGCCCCAAAACUACCCUACUGUGACUAUGGAGCUGCUGCUGUGAGCUUGGUGUUGCAAAAUCCGCCUGAGUAGGAUUCCAACAGAGGAUUGAGCAUCA
B19: chr5:128440902:128440903:+_ENSG00000066583_ENST00000173527|hu_mus|hu_hu_hu_mus_True|78_88 (ssRNA)
RNA: GGGAGUUCUACAGUCCGACGAUCUUGAACGGUGCUGCCAAGUCCUUUAGGGUAUUGUUCUGUUACAAUAACUGGAAUCCCUAAGAUCCGAGCUCCUUGCAACAGUCUCUGUCCCACACUAAUGAUGUCCCCAAAGUAUUUGAUCAACAGAGGAUUGAGCAUCA
B20: chr14:35078925:35078926:-_ENSG00000129515_ENST00000362031|hu_mus|FALSE|FALSE (ssRNA)
RNA: GGGAGUUCUACAGUCCGACGAUCAAAAUUUGGCAAUGAACUCUUUGUGUGAACGGUGAACUUGACUCUAUCCCUCUCACUGAGCGCGUCUGAAAUGUCCACCUGCAGAGCAGCGUCACUCUGGAGAUCUACAUUUAUUGCUUUCAACAGAGGAUUGAGCAUCA
B21: chr11:100904286:100904287:+_ENSMUSG00000019302_ENSMUST00000044721|mus_mus|FALSE|FALSE (ssRNA)
RNA: GGGAGUUCUACAGUCCGACGAUCGUGGAUGAUGCCGAGGAUAACAGACAUCUUCAUCUUGAAGGAGUUGAGGAAGGUCAGCUUGUUGGUUGCAAUGUUCCAAAUCGGAUCAAUGCCAAACGGGUACGGGCCACCAAAAACUCCCAACAGAGGAUUGAGCAUCA
B22: 25765075_25765605_2889_CDS_ENSMUSG00000040907_ENSMUST00000080882|mouse|control|control (ssRNA)
RNA: GGGAGUUCUACAGUCCGACGAUCCAGGUCAGCCCACUGGACCACCACGAUACUCACAAAGAAGGCUGUGUGGCAUGUGAACUCUACCACCUUCCUCUGCUCAUAAGUCCACUGCUGCCCAUAACUGUCUUCUAGGUCAUUGACCAACAGAGGAUUGAGCAUCA

The target in the experiment is T1, UNK ZnF1-3 (human, UniProt Q9C0B0 31-174).
T1 sequence: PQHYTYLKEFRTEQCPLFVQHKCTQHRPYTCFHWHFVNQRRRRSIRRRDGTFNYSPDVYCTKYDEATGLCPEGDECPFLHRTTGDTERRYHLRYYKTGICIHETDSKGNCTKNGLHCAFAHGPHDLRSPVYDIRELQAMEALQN
Description: nsRBNS (natural sequence RNA bind-n-seq); RBNS binding buffer (assumed for nsRBNS): 25 mM Tris pH 7.5, 150 mM KCl, 3 mM MgCl2, 0.01% Triton X-100, 500 ug/ml BSA, 20 U/ml SUPERase-In, 4 C; UNK is unkempt and MSI1 is Musashi-1; names of the RNAs are library labels; protein concentration not given here; high values mean tight binding.
B1: the binding signal was determined as 0.721 enrichment R.
Molecule B2 yielded a binding signal of 0.993 enrichment R.
B3 gave a binding signal of 1.21 enrichment R.
B4 yielded a binding signal of 0.632 enrichment R.
The figure for B5 is 0.285 enrichment R; for B6 it is 0.594 enrichment R.
In the case of B7, the binding signal came to 1.04 enrichment R.
The value for B8 was 0.862 enrichment R.
The figure for B9 is 1.07 enrichment R; for B10 it is 0.619 enrichment R.
In turn, B11 displayed a binding signal of 0.838 enrichment R.
In turn, B12 came in with a binding signal of 0.423 enrichment R.
With B13, the binding signal was determined as 0.574 enrichment R.
The molecule B14 had a binding signal of 2.04 enrichment R.
The figure for B15 is 1.57 enrichment R; for B16 it is 1.19 enrichment R.
With B17, the binding signal came out at 1.69 enrichment R.
In turn, B18 returned a binding signal of 1.05 enrichment R.
B19 returned a binding signal of 0.647 enrichment R.
As for B20, the binding signal was 0.648 enrichment R.
For B21, the binding signal is 1.41 enrichment R.
The value for B22 was 0.967 enrichment R.
